The structures appear in SMILES notation. Where two headings read alike, the source gives them in different places.

The nature of this data set: Chronic preclinical study: nasal tissue paclitaxel. The data set is classed as in vivo, sheep. As to the method: Examples 3 and 4 describe acute and chronic studies on the nasal tissue with 5 live sheep. In Examples 3 and 4, the nasal treatment sites were flushed with a solution that was saline or water, the balloon catheter was inserted to the nasal treatment site, the balloon catheter was soaked at the site to hydrate and activate the drug coating at the site of treatment, prior to inflation. The drug coated catheters were inflated at the target site for 3-5 minutes.

With `CC(=O)O[C@H]1C(=O)[C@@]2(C)[C@H]([C@H](OC(=O)c3ccccc3)[C@]3(O)C[C@H](OC(=O)[C@H](O)[C@@H](NC(=O)c4ccccc4)c4ccccc4)C(C)=C1C3(C)C)[C@]1(OC(C)=O)CO[C@@H]1C[C@@H]2O` [paclitaxel], the “Total Paclitaxel (in nasal tissue)” value stood at 6.50 ng (7 d, LT Nasal Tx 3 (anterior and inferior nasal cavity), DCB 12 × 30, 8 atm); 0.201 ng (7 d, RT Nasal Tx 1 (superior nasal cavity), DCB 6 × 30, 6 atm); 4.81 ng (14 d, RT Nasal Tx 1 (superior nasal cavity), DCB 10 × 30); 0.213 ng (28 d, RT Nasal Tx 2 (lateral nasal cavity), DCB 8 × 30). Moreover, the concentration at 7 d is, setting by setting: (sheep, 3.5 μg/mm^2 of balloon surface, 7 d, LT Nasal Tx 3 (anterior and inferior nasal cavity), DCB 12 × 30, 8 atm, read-out: Conc. (paclitaxel in nasal tissue)) 11.4 ng/g; (sheep, nasal tissue, right superior nasal cavity (RT Nasal Tx 1), 3.5 μg/mm^2 of balloon surface, 7 d, RT Nasal Tx 1 (superior nasal cavity), DCB 6 × 30, 6 atm, read-out: Conc. (paclitaxel in nasal tissue)) 0.448 ng/g. For the same compound, the concentration at 28 d (sheep, nasal tissue, right lateral nasal cavity (RT Nasal Tx 2), 3.5 μg/mm^2 of balloon surface, 28 d, RT Nasal Tx 2 (lateral nasal cavity), DCB 8 × 30, read-out: Conc. (paclitaxel in nasal tissue)) was determined as 0.469 ng/g. Further, the concentration at 14 d (sheep, nasal tissue, right superior nasal cavity (RT Nasal Tx 1), 3.5 μg/mm^2 of balloon surface, 14 d, RT Nasal Tx 1 (superior nasal cavity), DCB 10 × 30, read-out: Conc. (paclitaxel in nasal tissue)) stood at 11.2 ng/g.
